Test results as given in PubChem BioAssay AID316 (DTP/NCI, 2004).
Inconclusive results and toxic doses are left out. For part of its entries the source gives two or more results. Only these are listed. There may be further records. The values listed for one entry are repeats (runs, samples, wells, individuals or studies).

Tested on: P1534 leukemia ip, CD2F1 mice, survival T/C
Test: NCI In Vivo Anticancer Drug Screen. Data for tumor model P1534 Leukemia (intraperitoneal) in CD2F1 (CDF1) mice
Conditions: endpoint: mean survival time, vehicle: saline, higher = longer survival
Method: The antitumor activity of compounds was measured in mice bearing transplantable tumors. Survival or tumor size were measured and the results are expressed as the measurement made in the treated group (T) divided by the measurement made in the vehicle treated control group (C). The tumor model used in this assay is P1534 Leukemia (intraperitoneal) in CD2F1 (CDF1) mice

Row | SMILES | T/C (dose: 0.67 mg/kg/injection, schedule: Q02DX008 (ip)) | T/C (dose: 160.0 mg/kg/injection, schedule: Q01DX010 (ip))
1 | CC[C@]1(O)C[C@H]2CN(CCc3c([nH]c4ccccc34)[C@@](C(=O)OC)(c3cc4c(cc3OC)N(C=O)[C@H]3[C@@](O)(C(=O)OC)[C@H](OC(C)=O)[C@]5(CC)C=CCN6CC[C@]43[C@@H]65)C2)C1 | 102 % of control, 106 % of control, 313 % of control | 
2 | OCC1OC(n2cnc3c(=S)nc[nH]c32)C(O)C1O (configuration not stated) |  | 111 % of control and 166 % of control
